Measured values reported in article PMC4336329 (PLoS ONE, 2015).
Screen size: about 310,000 compounds; about 14,000 (4.5%) showed an effect of 50% or more. The effect is printed as a negative number. This is one part of the list.

Molecular target: human ether-à-go-go-related gene (hERG) potassium channel (human, UniProt Q12809)
Experiment: primary screen, population patch clamp on CHO cells stably expressing hERG
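Also: peak tail current of the secondary pulse compared with the same well before compound.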

Chain of human ether-à-go-go-related gene (hERG) potassium channel (Q12809 whole entry, looked up): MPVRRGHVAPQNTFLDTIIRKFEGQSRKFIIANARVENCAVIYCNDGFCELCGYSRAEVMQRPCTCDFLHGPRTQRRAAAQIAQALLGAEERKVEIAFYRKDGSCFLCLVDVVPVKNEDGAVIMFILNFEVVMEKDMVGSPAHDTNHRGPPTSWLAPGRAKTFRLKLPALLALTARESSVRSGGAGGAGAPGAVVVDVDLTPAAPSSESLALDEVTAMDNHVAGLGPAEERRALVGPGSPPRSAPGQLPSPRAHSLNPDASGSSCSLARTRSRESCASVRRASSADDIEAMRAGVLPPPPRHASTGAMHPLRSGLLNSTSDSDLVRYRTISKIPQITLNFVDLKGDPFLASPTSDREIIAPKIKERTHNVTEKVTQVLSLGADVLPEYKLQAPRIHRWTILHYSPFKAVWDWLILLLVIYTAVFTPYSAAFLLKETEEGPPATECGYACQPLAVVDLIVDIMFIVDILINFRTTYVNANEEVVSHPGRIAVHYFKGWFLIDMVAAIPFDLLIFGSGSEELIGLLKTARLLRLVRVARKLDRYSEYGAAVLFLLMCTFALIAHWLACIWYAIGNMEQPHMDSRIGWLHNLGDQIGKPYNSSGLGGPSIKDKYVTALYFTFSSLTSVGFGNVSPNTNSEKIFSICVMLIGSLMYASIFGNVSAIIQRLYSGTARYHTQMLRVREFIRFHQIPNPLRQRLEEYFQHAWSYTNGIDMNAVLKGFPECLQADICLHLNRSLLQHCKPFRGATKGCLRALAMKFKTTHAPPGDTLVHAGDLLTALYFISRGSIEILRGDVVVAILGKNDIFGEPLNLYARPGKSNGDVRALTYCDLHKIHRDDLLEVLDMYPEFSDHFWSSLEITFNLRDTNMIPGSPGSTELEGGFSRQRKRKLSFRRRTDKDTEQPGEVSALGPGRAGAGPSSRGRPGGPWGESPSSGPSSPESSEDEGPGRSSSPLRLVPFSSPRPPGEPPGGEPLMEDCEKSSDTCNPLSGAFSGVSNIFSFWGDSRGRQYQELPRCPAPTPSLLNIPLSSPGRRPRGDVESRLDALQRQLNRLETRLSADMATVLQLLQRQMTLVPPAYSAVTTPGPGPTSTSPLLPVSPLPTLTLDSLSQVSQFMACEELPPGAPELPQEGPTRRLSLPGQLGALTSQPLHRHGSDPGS

Structure (SMILES)	hERG current change (%, negative = inhibition) at 10uM [%]
COc1cc(/C=C(\C#N)C(=O)NCC2CCCO2)ccc1OCCC(C)C (stereo not drawn)	4.67
O=C(Nc1cccc(F)c1)C1CCN(C(=O)c2ccccc2Cl)CC1	-8.66
O=C(Cn1c(-c2ccco2)nc2ccccc21)N1CCCCC1	-10.1
COc1cccc(C2C=C(Nc3ccccc3)C(=O)N2c2ccccc2)c1 (stereo not drawn)	-4.62
CN(c1ccc(C(=O)Nc2ccc(CC#N)cc2)cc1)S(C)(=O)=O	26.4
O=C(Nc1ccccc1N1CCN(c2ccccc2)CC1)c1ccccc1F	8.96
Cc1[nH]n(-c2ccccc2)c(=S)c1C=NCCCN=Cc1c(C)[nH]n(-c2ccccc2)c1=S	-2.22
CCN(Cc1ccc2c(c1)OCO2)C(=O)CSc1ncnc2sccc12	-23.4
CN(C)CCCN1c2ccccc2Sc2ccc(Cl)cc21.Cl	-42.2
CC(C)CNC(=O)COc1ccc(Sc2ccc(OCC(=O)NCC(C)C)cc2)cc1	2.92
C=CCOc1ccc(C(c2c(C)n(C)n(-c3ccccc3)c2=O)c2c(C)n(C)n(-c3ccccc3)c2=O)cc1	12
CSCCC(NS(=O)(=O)c1ccccc1)C(=O)OCc1cc(=O)oc2cc(O)ccc12 (stereo not drawn)	-57.3
CC(C)c1[nH]nc2c1C(C(C)C)C(C#N)=C(N)O2 (stereo not drawn)	2.97
Cc1ccc(F)cc1NC(=O)COC(=O)COc1ccc(C#N)cc1	-2.48
C=CCN(CC=C)CCOc1cc(C)ccc1[N+](=O)[O-].O=C(O)C(=O)O	-9.22
CCCN1CCC(=O)N(CCN=[N+]=[N-])CC1	20.6
COCCNC(=O)c1ccccc1NC(=O)CCSc1ccccc1	-1.11
COc1ccc(CN2CCN(c3ccccn3)CC2)c(OC)c1C.O=C(O)C(=O)O	-37.1
C=CCn1c(Cc2csc(N)n2)nnc1SCC(=O)Nc1ccccc1C(F)(F)F	4.01
O=C(CN1CCN(Cc2ccccc2)CC1)Nc1ccc(S(=O)(=O)N2CCOCC2)cc1	-4.43
COc1ccc(C(CC(=O)Nc2ccc(F)cc2)c2ccccc2)cc1 (stereo not drawn)	9.13
CC(=O)C1=C(N2CCCCC2)CCC1=O	23.5
N#Cc1nc(-c2ccc(F)cc2)oc1NCc1cccc2c1OCO2	15
COc1cccc(N2CCN(S(=O)(=O)c3cc4c(cc3Cl)NC(=O)CO4)CC2)c1	12
